# Assay results: PubChem BioAssay (NCATS)
# Where “and” joins values, the source holds several entries; their conditions need not be identical. Identical values can stand only once. Inconclusive results, whose numbers are uncertain, are shown with a selection of clear calls. A potency beside an inconclusive call is a rough fit, not a confirmed value. Calls of active or inactive are those of the source. Calls come from the whole dose curve; as a rule, active = well fitted inhibition curve with a large enough effect; inconclusive = small, poorly fitted or top-dose-only effect; inactive = flat fitted curve, though single readings scatter.
# Test: P-glycoprotein substrates identified in KB-8-5-11 adenocarcinoma cell line, qHTS therapeutic library screen (AID 1346987); note: nearly all actives have a fitted effect of over 65% in size
# Conditions: KB-8-5-11 (P-gp overexpressing) viability, CellTiter-Glo, 72 h; series mostly up to 44.5 µM; activity change, negative = cytotoxicity: at the top concentration
# Summary of the method: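 Compounds are pinned in dose-response onto KB-8-5-11 cells (500 cells/well, colchicine-free medium) and left 72 h at 37 degree C. CellTiter-Glo luminescence then yields AC50 values.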
# % is set by controls: 0 for no effect and ±100 for the full control effect; potency is the fitted concentration of half-maximal effect; tags give direction and shape of the fitted curve.
SMILES,Potency,"activity change, negative = cytotoxicity",outcome
CN(C)[C@@H]1C(=O)C(C(=O)NCN2CCCC2)=C(O)[C@@]2(O)C(=O)C3=C(O)c4c(O)cccc4[C@@](C)(O)C3C[C@@H]12 (stereo partly specified),"inconclusive: 18.4 µM [inhibitor, single point]",–,–
Cc1ccc2c(n1)Oc1ccc(C(C)C(=O)OCC(=O)N(C)C)cc1C2 (stereo unspecified),"inconclusive: 20.6 µM [inhibitor, single point] and inconclusive: 29.1 µM [inhibitor, single point]",–,–
COc1cc(OC)c(C(=O)CCCN2CCCC2)c(OC)c1,inactive,–,–
Cc1c(C)n(Cc2ccccc2)c2ccc(C(=O)OCCN(C)C)cc12,active: 23.1 µM,–,–
CC(C)C(=O)Nc1ccc([N+](=O)[O-])c(C(F)(F)F)c1,inactive,–,–
COCCOC(=O)C1=C(C)NC(C)=C(C(=O)OC/C=C/c2ccccc2)C1c1cccc([N+](=O)[O-])c1 (stereo unspecified),"inconclusive: 7.31 µM [inhibitor, partial curve]",–,–
CC(C)(C)c1ccc(O)c(O)c1,"inconclusive: 31.6 µM [inhibitor, single point]",–,–
Cc1cc2c(s1)Nc1ccccc1N=C2N1CCN(C)CC1,"inconclusive: 23.1 µM [inhibitor, single point]",–,–
NS(=O)(=O)c1cc(C(=O)O)c(NCc2ccco2)cc1Cl,inactive,–,–
COC(=O)C1=C(C)NC(C)=C(C(=O)OCC(C)C)C1c1ccccc1[N+](=O)[O-] (stereo unspecified),"inconclusive: 2.31 µM [inhibitor, full curve]",–,–
CCN1CCC(n2cc(CNc3cc(Cl)c4ncc(C#N)c(Nc5ccc(F)c(Cl)c5)c4c3)nn2)CC1,"inconclusive: 33.2 µM [inhibitor, single point] and inconclusive: 29.1 µM [inhibitor, single point]",–,–
CCN(CC)CCCC(C)Nc1c2ccc(Cl)cc2nc2ccc(OC)cc12 (stereo unspecified),"inconclusive: 29.1 µM [inhibitor, single point]",–,–
O=C1C[C@@H](c2ccc(O)cc2)Oc2cc(O)cc(O)c21,–,inactive: -3.25%,–
O=C(Nc1ccccc1)OCC(CN1CCCCC1)OC(=O)Nc1ccccc1 (stereo unspecified),"inconclusive: 4.95 µM [inhibitor, partial curve, poor fit]",–,–
CN(C)CCCSc1ccccc1NC(=O)/C=C/c1ccccc1,"inconclusive: 16.4 µM [inhibitor, partial curve]",–,–
O=Nc1c(-c2c(O)[nH]c3cc(Br)ccc23)[nH]c2ccccc12,active: 9.35 µM,–,–
COc1cc2c3cc1Oc1cc(ccc1O)C[C@@H]1c4c(cc(OC)c(O)c4Oc4ccc(cc4)C[C@@H]3N(C)CC2)CC[N+]1(C)C,–,inactive: -8.85%,–
Oc1cc(O)cc(/C=C/c2ccc(O)c(O)c2)c1,"inconclusive: 8.2 µM [inhibitor, partial curve, poor fit]",–,–

SMILES,Potency,"activity change, negative = cytotoxicity",outcome
O=C1c2ccccc2C(=O)c2c1ccc(O)c2O,"inconclusive: 29.1 µM [inhibitor, single point]",–,–
N=c1ccn2c(n1)O[C@H]1[C@@H](O)[C@@H](CO)O[C@H]12,"inconclusive: 5.26 µM [inhibitor, full curve]",–,–
CCc1cccc(N(C)C(N)=Nc2cccc3ccccc23)c1,"inconclusive: 18.4 µM [inhibitor, partial curve]",–,–
O=C1NC(=O)C(=Cc2ccc(-c3ccc(F)cc3O)o2)S1,"inconclusive: 20.9 µM [inhibitor, single point]",–,–
O=C(O)Cc1ccc(-c2ccccc2)cc1,–,inactive: 12.4% [at 17.3 µM],–
Oc1cccc(-c2c3nc(c(-c4cccc(O)c4)c4ccc([nH]4)c(-c4cccc(O)c4)c4nc(c(-c5cccc(O)c5)c5ccc2[nH]5)CC4)C=C3)c1,"inconclusive: 16.4 µM [inhibitor, single point] and inconclusive: 29.1 µM [inhibitor, single point]",–,–
CC(C)OC(=O)CCCC=CC[C@@H]1[C@H](C=C[C@@H](O)COc2cccc(C(F)(F)F)c2)[C@H](O)C[C@@H]1O,"inconclusive: 26.4 µM [inhibitor, single point]",–,–
Cc1[nH]c(C=C2C(=O)Nc3ccccc32)c(C)c1CCC(=O)O,"inconclusive: 37.2 µM [inhibitor, partial curve, poor fit]",–,–
CC1(C)S[C@@H]2[C@H](NC(=O)Cc3ccccc3)C(=O)N2[C@H]1C(=O)O (tested in a mixture with another compound),–,inactive: -6.28%,–
CC(C)OC(=O)c1cc(C(=O)OC(C)C)cc([N+](=O)[O-])c1,"inconclusive: 35.5 µM [inhibitor, single point]",–,–
OC[C@H]1O[C@H](O[C@]2(CCl)O[C@H](CCl)[C@@H](O)[C@@H]2O)[C@H](O)[C@@H](O)[C@H]1Cl,–,–,inactive
CNCCCCOc1ccccc1Cc1ccccc1,"inconclusive: 16.4 µM [inhibitor, single point]",–,–
CC1=C(C)C(=O)C(C(CCCCCC(=O)O)c2ccccc2)=C(C)C1=O (stereo unspecified),–,inactive: -15.2%,–
NC(=O)N/N=C/c1ccc([N+](=O)[O-])o1,"inconclusive: 25.9 µM [inhibitor, partial curve] and inconclusive: 31.6 µM [inhibitor, partial curve]",–,–
O=c1[nH]c2ccccc2n1CCCN1CCN(C(c2ccccc2)c2ccccc2)CC1,"inconclusive: 23.1 µM [inhibitor, single point]",–,–
Cc1cc(O)c2ccccc2c1O,"inconclusive: 29.1 µM [inhibitor, single point]",–,–
O=[N+]([O-])c1ccc(Nc2ccccc2-c2ccccc2)c2nonc12,"inconclusive: 20.9 µM [inhibitor, single point]",–,–
O=C(CCN1CCN(CCO)CC1)N1c2ccccc2Sc2ccc(C(F)(F)F)cc21,"inconclusive: 10.3 µM [inhibitor, partial curve]",–,–
